For assay [1], the target named is DNJ-13 (nematode DNAJB-homolog), fluorescently labelled (C. elegans) (UniProt Q20774). The assay is described as follows: AUC; sedimentation velocity with fluorescence detection, 600 nM *DNJ-13 with Hsc70 variant in the presence of ATP, 42,000 rpm, 20 °C, 40 mM HEPES/KOH pH 7.5, 150 mM KCl, 1 mM DTT, 5 mM MgCl2; both purified.
In assay [2] the target is DNJ-12 (nematode DNAJA-homolog), fluorescently labelled (C. elegans) (UniProt O45502). The assay is described as follows: AUC; sedimentation velocity with fluorescence detection, 300 nM *DNJ-12 with Hsc70 variant in the presence of ATP, 42,000 rpm, 20 °C, 40 mM HEPES/KOH pH 7.5, 150 mM KCl, 1 mM DTT, 5 mM MgCl2; both purified.
Assay [3] has as its target DNJ-13 (nematode DNAJB-homolog), fluorescently labelled (C. elegans) (UniProt Q20774). The assay is described as follows: condition: only in the absence of nucleotide (4 µM Hsc70); AUC; sedimentation velocity with fluorescence detection, 600 nM *DNJ-13 with 4 µM Hsc70 variant, absence of nucleotide, 42,000 rpm, 20 °C, 40 mM HEPES/KOH pH 7.5, 150 mM KCl, 1 mM DTT, 5 mM MgCl2; both purified.

Amino acid sequences for entries named in this document (tags omitted). A change or cut given only in a name is not applied to a line headed by its entry.
UniProt Q20774: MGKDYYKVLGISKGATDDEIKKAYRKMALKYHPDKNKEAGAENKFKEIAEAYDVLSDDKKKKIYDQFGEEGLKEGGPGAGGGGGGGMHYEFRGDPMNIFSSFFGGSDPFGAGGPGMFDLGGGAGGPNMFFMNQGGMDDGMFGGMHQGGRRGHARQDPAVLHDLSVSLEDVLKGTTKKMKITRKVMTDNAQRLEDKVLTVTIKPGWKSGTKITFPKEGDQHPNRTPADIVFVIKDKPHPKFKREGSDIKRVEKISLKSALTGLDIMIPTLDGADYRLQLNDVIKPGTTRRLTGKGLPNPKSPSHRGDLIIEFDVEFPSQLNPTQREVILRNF
UniProt O45502: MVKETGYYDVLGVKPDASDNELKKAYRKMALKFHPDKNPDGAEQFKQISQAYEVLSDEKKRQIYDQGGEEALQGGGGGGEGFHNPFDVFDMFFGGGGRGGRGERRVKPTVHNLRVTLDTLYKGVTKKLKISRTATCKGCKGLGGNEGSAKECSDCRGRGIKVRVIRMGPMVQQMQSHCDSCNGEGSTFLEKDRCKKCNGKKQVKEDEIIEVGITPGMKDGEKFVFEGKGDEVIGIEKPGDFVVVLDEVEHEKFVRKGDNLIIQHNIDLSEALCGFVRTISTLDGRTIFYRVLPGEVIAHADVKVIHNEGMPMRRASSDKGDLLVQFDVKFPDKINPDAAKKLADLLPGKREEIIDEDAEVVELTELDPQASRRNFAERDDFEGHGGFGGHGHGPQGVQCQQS
UniProt P09446: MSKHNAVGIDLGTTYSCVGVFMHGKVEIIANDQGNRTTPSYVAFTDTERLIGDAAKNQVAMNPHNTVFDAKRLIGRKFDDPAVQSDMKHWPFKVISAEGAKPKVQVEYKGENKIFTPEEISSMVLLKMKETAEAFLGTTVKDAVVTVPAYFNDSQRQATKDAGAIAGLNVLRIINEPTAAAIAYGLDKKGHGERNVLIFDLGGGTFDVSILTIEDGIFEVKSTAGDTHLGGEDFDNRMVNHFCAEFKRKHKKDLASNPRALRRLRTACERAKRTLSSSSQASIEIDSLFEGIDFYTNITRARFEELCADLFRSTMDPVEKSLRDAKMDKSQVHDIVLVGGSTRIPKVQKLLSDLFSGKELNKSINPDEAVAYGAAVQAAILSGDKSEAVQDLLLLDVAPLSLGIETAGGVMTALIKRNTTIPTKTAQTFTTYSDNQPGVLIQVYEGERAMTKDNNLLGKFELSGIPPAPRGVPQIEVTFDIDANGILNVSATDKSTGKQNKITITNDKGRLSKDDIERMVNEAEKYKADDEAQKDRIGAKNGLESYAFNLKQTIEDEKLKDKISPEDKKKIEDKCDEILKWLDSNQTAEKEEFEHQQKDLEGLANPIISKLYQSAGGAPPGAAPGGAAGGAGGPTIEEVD

In assay [4] the target is wild type Hsc70 (nematode Hsc70, HSP-1) (C. elegans) (UniProt P09446). The assay is described as follows: AUC; sedimentation velocity, UV/VIS optics, 0.5 mg/mL protein; dc/dt plots and UltraScan II analysis; oligomerization status of Hsc70 variants; both purified.
Assay [5] addresses DNJ-12 (nematode DNAJA-homolog), fluorescently labelled (C. elegans) (UniProt O45502). The assay is described as follows: AUC; sedimentation velocity with fluorescence detection, 300 nM *DNJ-12 with Hsc70 variant, absence of nucleotide, 42,000 rpm, 20 °C, 40 mM HEPES/KOH pH 7.5, 150 mM KCl, 1 mM DTT, 5 mM MgCl2; both purified.
Assay [6] has as its target DNJ-13 (nematode DNAJB-homolog), fluorescently labelled (C. elegans) (UniProt Q20774). The assay is described as follows: AUC; sedimentation velocity with fluorescence detection, 600 nM *DNJ-13 with 4 µM Hsc70 variant, absence of nucleotide, 42,000 rpm, 20 °C, 40 mM HEPES/KOH pH 7.5, 150 mM KCl, 1 mM DTT, 5 mM MgCl2; both purified.
The target of the next assay is Hsc70 D233N (C. elegans) (UniProt P09446). The assay is described as follows: AUC; sedimentation velocity, UV/VIS optics, 0.5 mg/mL protein; dc/dt plots and UltraScan II analysis; oligomerization status of Hsc70 variants; both purified.
The next assay concerns the target Hsc70 D384N (C. elegans) (UniProt P09446). The description is as above.
The next assay addresses Hsc70 A379V (C. elegans) (UniProt P09446). Described as above.
For assay [7], the target named is DNJ-13 (nematode DNAJB-homolog), fluorescently labelled (C. elegans) (UniProt Q20774). As to the kind of experiment: condition: only in the absence of nucleotide (4 µM Hsc70 A379V); AUC; sedimentation velocity with fluorescence detection, 600 nM *DNJ-13 with 4 µM Hsc70 variant, absence of nucleotide, 42,000 rpm, 20 °C, 40 mM HEPES/KOH pH 7.5, 150 mM KCl, 1 mM DTT, 5 mM MgCl2; both purified.

The target of assay [8] is T1, BAG-1 (nematode nucleotide exchange factor), fluorescently labelled (C. elegans) (UniProt O44739).
T1 sequence (chain, ATTO 488 C5-maleimide at its cysteine residue): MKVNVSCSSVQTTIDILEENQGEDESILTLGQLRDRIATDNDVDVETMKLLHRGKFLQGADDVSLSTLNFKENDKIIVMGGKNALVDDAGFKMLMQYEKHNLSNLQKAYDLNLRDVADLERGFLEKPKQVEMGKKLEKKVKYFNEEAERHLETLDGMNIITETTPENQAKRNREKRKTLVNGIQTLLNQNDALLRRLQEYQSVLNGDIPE
The assay is described as follows: AUC; sedimentation velocity with fluorescence detection, 300 nM *BAG-1 with 2 µM Hsc70 variant, 42,000 rpm, 20 °C, 40 mM HEPES/KOH pH 7.5, 150 mM KCl, 1 mM DTT, 5 mM MgCl2; without nucleotide, and with ADP (complex diminished); both purified.

Results are given in words; binding and its absence hold for the method and conditions named. Some binding calls cover weakened binding; strength is not graded here.

With “wild type Hsc70 (nematode Hsc70, HSP-1) (from UniProt P09446 1-640)”, the binding result in assay [1] was “binds”; in assay [2] it was “binds”; in [3], “no binding”; in assay [4], “no binding (tested: 0.5 mg/mL)”; in assay [5], “no binding (condition: in the absence of nucleotide)”.
In the case of Hsc70 D233N (from UniProt P09446 1-640), the binding result is given as “binds” in assay [1]; “binds weakly” in assay [6]; “binds weakly” in [2]; “no binding (tested: 0.5 mg/mL)” in the assay with Hsc70 D233N (C. elegans); “no binding (condition: in the absence of nucleotide)” in [5].
As to Hsc70 D384N (from UniProt P09446 1-640), the binding result is reported as “binds” in assay [1]; “binds” in [6]; “binds” in assay [2]; “no binding (tested: 0.5 mg/mL)” with Hsc70 D384N (C. elegans); “no binding (condition: in the absence of nucleotide)” in assay [5].
On to Hsc70 A379V (from UniProt P09446 1-640), for which the binding result is reported as “binds” in assay [1]; “binds weakly” in [2]; “no binding (tested: 0.5 mg/mL)” in the assay with Hsc70 A379V (C. elegans); “no binding (condition: in the absence of nucleotide)” in assay [5]; “no binding” in [7].
Regarding Hsc70 S321F (from UniProt P09446 1-640), the binding result in assay [1] is reported as “no binding”; in assay [6], “no binding (tested: 4 µM Hsc70 S321F, absence of nucleotide)”; in assay [8], “no binding (tested: 2 µM Hsc70 S321F)”.

Source of the values: paper PMC6697693.
